According to PubChem BioAssay (Tox21):
Inconclusive means that the source gave no clear call. Such entries were picked first, then a sample of the others. No potency is given beside an inconclusive call; the fits are too rough. Active and inactive are the calls of the source. Calls follow the shape of the dose curve; as a rule, active = well fitted cell-killing curve with a large enough effect in the repeat runs; inconclusive = weak or mixed curves, or effect the other way; inactive = no such curve, though single readings can be large or run the other way.

assay: qHTS assay for identifying genotoxic compounds that show differential cytotoxicity against isogenic chicken DT40 cell lines with known DNA damage response pathways - wild type cell line (AID 743012); conditions: DT40 wild type chicken cells viability, CellTiter-Glo, 40 h; activity change, negative = cytotoxicity: at 68.4 µM (top of the series) unless noted; also: nearly all actives have a fitted effect of over 60% in size
Method in brief: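 Wild-type DT40 cells (300/well) exposed to compounds for 40 hours at 37 C/5% CO2. Viability read by CellTiter-Glo luminescence after 30 min at room temperature.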
% is scaled to controls: 0 for no effect and ±100 for the full control effect; potency is read from the fitted curve at half-maximal effect; tags tell the direction and shape of the fitted curve.

| SMILES | Potency | activity change, negative = cytotoxicity |
| --- | --- | --- |
| F[Si-2](F)(F)(F)(F)F | inactive |  |
| CC1(C)[C@@H]2CC[C@@]1(C)C(=O)C2 | inconclusive [cytotoxic, full curve] |  |
| O=C(O)c1ccc(S(=O)(=O)O)cc1C(=O)O |  | inactive: -21.2% |
| C=CC(=O)OCCCCCCCC |  | inactive: 4.43% |
| CN1CCC(=C2c3ccccc3CCc3cccnc32)CC1 | inconclusive [cytotoxic, partial curve, poor fit] |  |
| O=C(CS)OCCOC(=O)CS | inconclusive [cytotoxic] |  |
| Cc1cccc(NC(=S)N(C)C)c1 |  | inactive: 5.49% |
| O=C(O)c1cc(=O)c2c(OCC(O)COc3cccc4oc(C(=O)O)cc(=O)c34)cccc2o1 | inconclusive [rising, full curve, poor fit] |  |
| N[C@@H](CCC(=O)Nc1ccc([N+](=O)[O-])cc1)C(=O)O |  | inconclusive: 27.3% |
| Cc1occc(=O)c1O | inconclusive [cytotoxic, partial curve, poor fit] |  |
| O=C1CCN(c2ccccc2)N1 | inconclusive [cytotoxic, single point] |  |
| CCOC(=O)CCC(C)=O |  | inactive: -8.93% |
| CC1(O)CSC(C)(O)CS1 (centres undefined) | inconclusive [cytotoxic, single point] |  |
| O=C(Cl)c1ccc(F)c(Cl)c1 | inconclusive [rising, single point] |  |
| COCN(COC)c1nc(N(COC)COC)nc(N(COC)COC)n1 | inconclusive [rising, single point] |  |
| CCOC(=O)CC(CC(=O)OCC)(OC(C)=O)C(=O)OCC | inconclusive [cytotoxic, single point] |  |
| CC(=O)OC/C=C(\C)CC/C=C(\C)CCC=C(C)C | inconclusive [cytotoxic] |  |
| CO[Si](CCCS)(OC)OC |  | inactive: 19.3% |
| CCCC(=O)OCc1ccccc1 |  | inactive: 12.2% |
| CN(C)CCC(c1ccccc1)c1ccccn1 (centres undefined) | inactive |  |

| SMILES | Potency | activity change, negative = cytotoxicity |
| --- | --- | --- |
| CC(C)=CCCC(C)CCOC=O (centres undefined) | active: 48.6 µM |  |
| CC(C)(C)C1CCCCC1O (centres undefined) | inconclusive [rising, partial curve, poor fit] |  |
| Clc1cc(Cl)c2c(c1)N=C1CCCCCN1C2 | active: 13.3 µM |  |
| CCOCCO | inconclusive [rising, partial curve, poor fit] |  |
| COc1c(Cl)ccc(Cl)c1C(=O)O | inconclusive [rising, single point] |  |
| CCn1nc(Cc2ccccc2)cc1C1CCN(C[C@H]2C[C@H](N(C)[C@@H](C(=O)O)C(C)C)C[C@@H]2c2cccc(F)c2)CC1 | active: 61.1 µM |  |
| c1cc(CN2CCCCC2)cc(OCCCNc2nc3ccccc3s2)c1 | active: 13.3 µM |  |
| CC1=CC(C)C(C=O)CC1 (centres undefined) |  | inactive: -0.216% |
| Cc1ccnc(N)c1 | inconclusive [cytotoxic, single point] |  |
| CC1=C(O)C(=O)C(C)O1 (centres undefined) |  | inactive: 6.02% [at 95 µM] |
| O=c1c2ccccc2oc2ccccc12 | inconclusive [rising, full curve, poor fit] |  |
| OC(CCN1CCCCC1)(c1ccccc1)C1CCCCC1 (centres undefined) | active: 26.6 µM |  |
| COc1cc(Cl)ccc1Cl |  | inactive: 0.813% [at 95 µM] |
| CC(=O)c1ccc2c(c1)N(CCCN1CCC(CCO)CC1)c1ccccc1S2 | active: 12.7 µM |  |
| CC(=O)[O][Al] | inconclusive [rising, partial curve, poor fit] |  |
| O=C(c1ccc(Cl)cc1)c1ccc(Cl)cc1 | inconclusive [rising, single point] |  |
| CCC(Cl)CCC(Cl)C(Cl)CC(Cl)C(Cl)C(Cl)CCl (centres undefined) | inconclusive [rising, full curve, poor fit] |  |
| OC(CN1CCC(Cc2ccc(F)cc2)CC1)c1ccc(Cl)cc1 (centres undefined) | inconclusive [cytotoxic, full curve] |  |
| CCOC(=O)/C=C/c1ccccc1 |  | inactive: 2.09% |
